According to paper PMC7819943, “Rice protein-binding microarrays: a tool to detect cis-acting elements near promoter regions in rice”:
This is one part of the list.

The sequences below were run against T1, OsWOX13 (Oryza sativa, UniProt Q5QMM3 1-267) (assay: protein-binding microarray (RPBM); PBS, 2% BSA, 51.3 ng/ul salmon testes DNA, 50 uM zinc acetate, 200 nM TF, 25 C, 1 h; high values mean tight binding). Conditions: protein: recombinant; tags: N-terminal polyhistidine and DsRed monomer fusion (pET32a); label: CyDye5-dUTP incorporated in the synthesized complementary strand; 3' TTTTT single-stranded linker to array surface; dsDNA, one strand shown.
T1 sequence: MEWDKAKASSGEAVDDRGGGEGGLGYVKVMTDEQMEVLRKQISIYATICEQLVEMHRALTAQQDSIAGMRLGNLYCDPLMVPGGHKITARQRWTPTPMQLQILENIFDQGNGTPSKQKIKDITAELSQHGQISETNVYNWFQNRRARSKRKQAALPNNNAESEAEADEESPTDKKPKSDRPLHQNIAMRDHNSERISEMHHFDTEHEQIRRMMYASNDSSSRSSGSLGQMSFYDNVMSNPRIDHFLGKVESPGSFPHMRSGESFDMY
In short: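 Binding signal is defined as the fluorescence intensity of each feature in arbitrary units, read on an Axon 4000B scanner. Transcription factors with N-terminal polyhistidine and DsRed fusions came from E. coli BL21-CodonPlus and were purified on Ni–NTA. They were incubated at 200 nM for 1 h at 25 °C on a custom Agilent array that had been made double-stranded with Cy5-dUTP, with 50 µM zinc acetate present, and the array was washed.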

Row | Sequence | binding signal
1 | AATATAGATAGTTAACACTAAATTGGAGGGAGTGCTCGCGCGGAGTCACCTAGTGCAG | 7480 fluorescence intensity (a.u.)
2 | TTGCTTTAACTAGCTGCTTAATTATATGTTCTTTGTATTTCGGAGTCACCTAGTGCAG | 5230 fluorescence intensity (a.u.)
3 | TCCATTCATGGCGGCTTAATTGGCGGTGTTGGCTATGGACCGGAGTCACCTAGTGCAG | 10300 fluorescence intensity (a.u.)
4 | CCAAACATAGATTAGCTAACTTTGCTCTACCAAGAAATTGCGGAGTCACCTAGTGCAG | 7560 fluorescence intensity (a.u.)
5 | GGTTCCACTATCAATCTTAGACAGTATAAACAGGTCAACACGGAGTCACCTAGTGCAG | 5380 fluorescence intensity (a.u.)
6 | GGTTGTATGACGTTAATTTATACCAGAACAGAACCGTCCTCGGAGTCACCTAGTGCAG | 4860 fluorescence intensity (a.u.)
7 | TTGAGTGACATGCAAATAATGAGGGGAGTTTAAAATCTACCGGAGTCACCTAGTGCAG | 5670 fluorescence intensity (a.u.)
8 | TAAACTAGTAGATAATTAACCAATTTGGAACATGTGCCAGCGGAGTCACCTAGTGCAG | 15100 fluorescence intensity (a.u.)
9 | ACCTGTTGATTGTTGTAGTTCACGGCCCAGTGGCATCCCCCGGAGTCACCTAGTGCAG | 30300 fluorescence intensity (a.u.)
10 | TTTTAGATTTGATATATGCATCAATACAGGTTGCCTCAAACGGAGTCACCTAGTGCAG | 6460 fluorescence intensity (a.u.)
11 | TGGAATTTATTTTAATTTTGATTTAGAATTTTGGTTAATACGGAGTCACCTAGTGCAG | 4870 fluorescence intensity (a.u.)
12 | TTAAAATGGTTAATCATGTATGCGAAAAGCTGTGGGCCTCCGGAGTCACCTAGTGCAG | 15000 fluorescence intensity (a.u.)
13 | CTGGAGATTGATCCCACCCAACGAACCAGCGACAAAAGGGCGGAGTCACCTAGTGCAG | 19300 fluorescence intensity (a.u.)
14 | TCTGATGAGGCCCATTACGAGAGAATCTGCTTCGGCCCAGCGGAGTCACCTAGTGCAG | 5800 fluorescence intensity (a.u.)
15 | TTTTGATTTAGATTTTGCCATACTATAATACGTCCGTCCTCGGAGTCACCTAGTGCAG | 35300 fluorescence intensity (a.u.)
16 | CTAGTGATGATTGGACGACACTTTCTTAATAATGAAAACACGGAGTCACCTAGTGCAG | 37700 fluorescence intensity (a.u.)
17 | TTTTAAAATAAATCTAGTCAAATTTAGGATATTTGACTTGCGGAGTCACCTAGTGCAG | 4290 fluorescence intensity (a.u.)
18 | ATCTTGTACATTGCACAAATTGACTATTGGTTTGTAGGAGCGGAGTCACCTAGTGCAG | 4300 fluorescence intensity (a.u.)
19 | TTTGAATGAAAATCAACTTTAAATTTGAGTTTGAAAATTCCGGAGTCACCTAGTGCAG | 11000 fluorescence intensity (a.u.)
20 | CGAATTATGTAATTTGTGTATAAAGTTTGATACGGATCGACGGAGTCACCTAGTGCAG | 6310 fluorescence intensity (a.u.)
21 | CCTTCAATTATACCTTCCAACCCACACTGTATGACCTGCCCGGAGTCACCTAGTGCAG | 8920 fluorescence intensity (a.u.)

Row | Sequence | binding signal
22 | AGCTTTGATTTTCCTGGTATGACATGAAGCATTGTTCAGACGGAGTCACCTAGTGCAG | 3430 fluorescence intensity (a.u.)
23 | GTGGTTAATTAATTATATTGAAGCATACTAATTGAAGATACGGAGTCACCTAGTGCAG | 39800 fluorescence intensity (a.u.)
24 | AGGACATCAATCATGGGGAAACATAGGTTCCAACTTCCAACGGAGTCACCTAGTGCAG | 23100 fluorescence intensity (a.u.)
25 | TTTAAATTAAATATCATCTTTCATAATACATAATGTTAACCGGAGTCACCTAGTGCAG | 17500 fluorescence intensity (a.u.)
26 | AGTACTGTTGGATTGATGACGGTGAGTACATCCCCAAGCACGGAGTCACCTAGTGCAG | 4750 fluorescence intensity (a.u.)
27 | TCGTCAATAACAAATTTGTATTACTCATCAATATCTATAACGGAGTCACCTAGTGCAG | 9320 fluorescence intensity (a.u.)
28 | GCCTGATTATTTTGGATGATTTATGGGAGAACAGCTGTTTCGGAGTCACCTAGTGCAG | 24400 fluorescence intensity (a.u.)
29 | TGATAAATAATTACATAACTCTTTCAATGTGACAAAGTAGCGGAGTCACCTAGTGCAG | 12400 fluorescence intensity (a.u.)
30 | AGGATTGACAGGAACTGAAAATATTCAGTTTGAGAATGCTCGGAGTCACCTAGTGCAG | 32000 fluorescence intensity (a.u.)
31 | ACGTAGACTAATAATAAAACAAATTACAGATTCCGCACGTCGGAGTCACCTAGTGCAG | 5620 fluorescence intensity (a.u.)
32 | GGGGCAAATTGGTCTTGTCATGAAAGCTAAAAGCCAAAGGCGGAGTCACCTAGTGCAG | 4730 fluorescence intensity (a.u.)
33 | ATGTACTGTTGACAGGGAACTGATCTTTAACCACTTCAGCCGGAGTCACCTAGTGCAG | 4890 fluorescence intensity (a.u.)
34 | GGTCCTAATTAATTATTTGCATGCATCCATGCCTTATATTCGGAGTCACCTAGTGCAG | 49700 fluorescence intensity (a.u.)
35 | GTTGTAATCTGTGTAATTAGTTATTGTGTTAGCCTATATTCGGAGTCACCTAGTGCAG | 10300 fluorescence intensity (a.u.)
36 | TGCCAATGTGATTGGCTCTTAGGGTAGATGAGGTGCCTTACGGAGTCACCTAGTGCAG | 33200 fluorescence intensity (a.u.)
37 | CCAAAATGATATTTCAAACTTCCAAAATATTAGCATGGCACGGAGTCACCTAGTGCAG | 4180 fluorescence intensity (a.u.)
38 | TTTAATTGATTTTGTTTAGAATTTGAGGACATGATCCACGCGGAGTCACCTAGTGCAG | 62900 fluorescence intensity (a.u.)
39 | GGGCATTTCAATCATGTATTATTTCTTCTATTTTGTTTTGCGGAGTCACCTAGTGCAG | 15800 fluorescence intensity (a.u.)
40 | CTAGAATTGAGGTAATGTGGATCAATTTATCACCCGCTGACGGAGTCACCTAGTGCAG | 6380 fluorescence intensity (a.u.)
41 | GAGTTGACATGTTAAATAGTATGTAAGGACAGACGCGGTACGGAGTCACCTAGTGCAG | 5830 fluorescence intensity (a.u.)
42 | AACGCTTAATTAGTTATGCTCTAATTCTTTGCTTAGTTTTCGGAGTCACCTAGTGCAG | 22600 fluorescence intensity (a.u.)
